In the supplement of paper PMC3334620:
The full ranking holds about 33,000 sequences; the median of “E-score (-0.5 to 0.5)” is about -0.054, and the highest 2% start at about 0.35. This is one part of the list.

target: T1, Stb5 (UniProt P38699); test: PBM E-score (8-mer binding enrichment) (E-score (-0.5 to 0.5)); higher = stronger / more preferred TF binding; most listed sequences are background and not binding sites; conditions: protein concentration: 200 nM; construct: GST-full length
T1 sequence: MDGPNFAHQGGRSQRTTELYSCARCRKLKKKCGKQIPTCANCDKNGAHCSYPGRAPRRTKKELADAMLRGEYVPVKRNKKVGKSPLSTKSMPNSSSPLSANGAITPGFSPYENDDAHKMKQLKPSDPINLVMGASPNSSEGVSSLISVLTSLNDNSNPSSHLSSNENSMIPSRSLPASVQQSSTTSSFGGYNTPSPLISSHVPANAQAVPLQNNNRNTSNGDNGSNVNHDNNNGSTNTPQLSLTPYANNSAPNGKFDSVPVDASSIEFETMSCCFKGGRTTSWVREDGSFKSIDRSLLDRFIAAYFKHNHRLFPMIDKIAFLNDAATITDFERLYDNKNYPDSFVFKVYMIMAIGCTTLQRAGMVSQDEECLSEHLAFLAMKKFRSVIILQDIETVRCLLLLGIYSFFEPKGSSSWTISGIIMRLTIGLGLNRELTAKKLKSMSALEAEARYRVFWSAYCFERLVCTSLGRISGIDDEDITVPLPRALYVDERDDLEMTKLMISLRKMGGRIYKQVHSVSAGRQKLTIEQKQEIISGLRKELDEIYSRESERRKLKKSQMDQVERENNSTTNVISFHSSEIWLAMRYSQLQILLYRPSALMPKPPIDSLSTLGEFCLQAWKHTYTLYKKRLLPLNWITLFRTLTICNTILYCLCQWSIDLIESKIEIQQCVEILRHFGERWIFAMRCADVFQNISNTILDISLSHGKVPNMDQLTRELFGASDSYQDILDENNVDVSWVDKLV
Outline: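 E-scores (a modified Wilcoxon-Mann-Whitney statistic) were assigned by the Universal PBM Analysis Suite to every ungapped eight-base word pooled with its reverse complement. The input came from universal all-10-mer Agilent arrays made double-stranded by primer extension and probed with GST-tagged yeast transcription factors at about 100-200 nM. Fluorescent anti-GST detected bound protein, and masliner normalised the scans.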

Row | Sequence | PBM E-score
1 | GCAAGAAC | -0.104
2 | TCAATTGA | -0.226
3 | TACGCATA | -0.129
4 | CTTGTCGC | 0.0315
5 | TATCGAAA | 0.0537
6 | ACTGAGAT | -0.343
7 | AGGGAACA | -0.0537
8 | AACTAAAG | -0.12
9 | CTTGGGCC | 0.0399
10 | AAATATGG | -0.0109
11 | ATCAAGGG | -0.182
12 | CAGGATTA | -0.062
13 | GTATCAAC | 0.145
14 | ACGACGAT | -0.123
15 | CGAGCACC | -0.0416
16 | CAAAAATA | 0.064
17 | GGTTGTAC | 0.106
18 | GTCGAAAC | -0.112
19 | ATGAACGC | -0.0754
20 | GCCACGCC | -0.0483
21 | ATAGCGTC | -0.0559
22 | CTACAGGC | -0.0338
23 | CACTTCGA | -0.145
24 | ACATGTTG | -0.0674
25 | CCAAATCC | -0.109

Row | Sequence | PBM E-score
26 | ACATTTCC | -0.0628
27 | GCGAGGGA | -0.17
28 | GATTCAGC | -0.0886
29 | TGAAGAAA | -0.121
30 | GAAGACAA | -0.0999
31 | CAATAATG | 0.151
32 | TCCTATAA | 0.0414
33 | GCCTAGAA | -0.0279
34 | CTATCCGA | 0.0404
35 | CAGACTGG | -0.267
36 | CCACATCC | -0.183
37 | CAGGTGCG | 0.00443
38 | AGTCGTGC | -0.232
39 | AGGTCCCC | -0.198
40 | ATGTTAGC | 0.0396
41 | AGTTGCAC | -0.104
42 | TAGTTAGA | -0.0913
43 | ACTCAATC | -0.201
44 | ACGTTCGC | -0.0988
45 | TATGGACA | -0.18
46 | CCATGAAC | -0.1
47 | AGAACGGC | 0.203
48 | AATCAACG | -0.0873
49 | ACTGGCTC | -0.151
50 | AGGCGACA | -0.106

Row | Sequence | PBM E-score
51 | ATACATTA | -0.248
52 | AGGTTCGG | 0.214
53 | GATATGGA | 0.208
54 | ATCCGTGG | 0.248
55 | AATCCGAA | 0.0775
56 | GCATTTCA | -0.00328
57 | CAGGGAAA | -0.16
58 | AAGCTGGC | -0.182
59 | AGACCGGC | 0.313
60 | AATGTCCC | 0.166
61 | CACATCTA | -0.0912
62 | GTACCCAA | -0.235
63 | CAGAACCC | 0.0356
64 | CTGCCCTC | -0.235
65 | GACTAGTC | -0.117
66 | AGTATACC | 0.192
67 | GCGACCAC | -0.0722
68 | AGAACCGA | 0.319
69 | GGCACAAC | 0.015
70 | TGTTCCAA | -0.275
71 | CAAAGGTA | -0.0782
72 | CCTCACAC | -0.186
73 | ACTACTGC | -0.0129
74 | GTTCCTAA | 0.0467
75 | ACATTGAC | -0.0877

Row | Sequence | PBM E-score
76 | CCAACTCA | -0.182
77 | GCATGAGA | -0.274
78 | CGAGCTCC | -0.119
79 | AGGGGTGA | -0.0425
80 | CAAACGGG | 0.284
81 | CTCGCTGA | -0.107
82 | CCGCAGCG | 0.268
83 | GAACCGTA | -0.0232
84 | GCGTAAAC | 0.218
85 | ATAAAACG | 0.207
86 | ACTATCGA | -0.104
87 | ACTTTGGC | 0.108
88 | CCTTGGCC | -0.202
89 | CAACGCTC | -0.0813
90 | CAGAGGAG | -0.183
91 | AGTCGTAG | -0.232
92 | GCGTTTCC | 0.00369
93 | GCATATTA | 0.148
94 | AGCGTGAT | -0.0779
95 | GTACGTCA | -0.16
96 | TACAGGAA | -0.0329
97 | CTACCTTA | 0.0492
98 | ATGATTCG | 0.0529
99 | GAGTTCTA | 0.023
100 | ATTGGCCG | 0.0761

Row | Sequence | PBM E-score
101 | CCTTTCAC | -0.0206
102 | CAGACGCC | 0.0387
103 | ATTTGCAG | -0.0362
104 | GCGTTCCA | -0.078
105 | CCGCCCAA | 0.216
106 | AGGCGAAG | -0.0229
107 | TATAATGA | -0.02
108 | CAGGAATC | -0.0969
109 | CGTATCCC | 0.176
110 | AGAACCAG | -0.1
111 | CGCACCAG | 0.0585
112 | GGTTCAAA | 0.194
113 | ATTAAGTG | -0.0501
114 | GCGCCACC | -0.0492
115 | GCGCGGGA | 0.202
116 | ATTTCATC | -0.0899
117 | GCGTTACA | 0.107
118 | GCAGCAGA | -0.11
119 | ATCTGTGG | -0.104
120 | GCCCTGTA | -0.0393
121 | AGTACTTC | -0.0225
122 | ATAATCCG | 0.103
123 | GTTTTCTA | 0.12
124 | ATTCCGGA | 0.115
125 | GCAAAAAA | -0.0328

Row | Sequence | PBM E-score
126 | GAAAAAGA | -0.168
127 | CAGGAGAA | -0.164
128 | AATCCGTG | 0.101
129 | CGTGCGGA | 0.126
130 | CTAGGTTC | -0.066
131 | GGTACACA | 0.229
132 | CACAGATG | -0.304
133 | ACACCGCG | 0.444
134 | GAACCGGC | 0.213
135 | CCTTATCA | -0.174
136 | CCTGTGAG | -0.234
137 | ACCCAGAC | -0.0931
138 | ACATTCTC | -0.194
139 | GCCCATCC | -0.2
140 | AATCGGCT | 0.113
141 | CAAAGTTC | 0.0325
142 | CTTATTAA | 0.0392
143 | AGTATTCG | -0.0487
144 | CAGGGCAG | -0.252
145 | CATTGTGC | -0.16
146 | TACTAACA | -0.0879
147 | CGGCGGCC | 0.242
148 | TGGGGAAA | 0.0424
149 | CGGTCCTA | 0.448
150 | ACATTGCT | -0.206

Row | Sequence | PBM E-score
151 | CTTGTTGA | -0.193
152 | AATTCTAA | 0.0654
153 | AAACATCG | 0.128
154 | CAGCATAA | 0.00965
155 | GGATTCAA | -0.101
156 | CCTAAATC | 0.189
157 | CATAAAAA | -0.0509
158 | GACGAGGC | -0.00106
159 | TCTTCCAA | -0.0975
160 | TAGCCACA | -0.259
161 | AACACCTT | 0.197
162 | AGTAGACT | -0.0924
163 | GACGTTCC | -0.119
164 | GAATACTA | -0.0399
165 | ATAGGTTA | 0.0214
166 | ACCGTCGA | 0.286
167 | ATTGAGAA | -0.0471
168 | GGCGTAAA | 0.169
169 | CGTCGAAG | -0.0996
170 | ACCTGTCG | 0.139
171 | AGTGGTAA | -0.159
172 | CGTCCATC | 0.0509
